Inconclusive means that the source gave no clear call. Such entries were picked first, then a sample of the others. Where the call is inconclusive, the potency comes from a doubtful curve fit. Active and inactive are the calls of the source. Calls follow the shape of the dose curve; as a rule, active = well fitted inhibition curve with a large enough effect; inconclusive = small, poorly fitted or top-dose-only effect; inactive = no such curve, though single readings can be large or run the other way. Residues, ends and D or L forms follow the SMILES beside them.
assay: BET inhibitor-based combinations targeting novel dependencies in MECOM-rearranged (r) AML: HNT-34 cell line (AID 2202234); settings: HNT-34 AML viability, CellTiter-Glo luminescence, 48 h; series mostly up to 46 µM; also: nearly all actives have a fitted effect of over 35% in size
Text: Ecotropic viral insertion site 1 (EVI1) is located on chromosome 3q26.2 as part of the MECOM (MDS and EVI1 complex) locus. Under normal hematopoiesis, EVI1 is a regulator of hematopoietic stem cell maintenance and self-renewal and EVI1 levels decrease as the cells differentiate. In approximately 5-10% of de novo acute myeloid leukemia (AML) EVI1 is aberrantly expressed, including Chromosomal inv(3)(q21;q26.2) or t(3;3)(q21;q26.2) alterations (MECOM-r) that account for about 50% of AML with EVI1 overexpression 31. AMLs with high levels of EVI1 have a poor prognosis and an overall survival time averaging between 10-14 months. EVI1 overexpression confers resistance in leukemia cells, highlighting the need to develop new targeted therapies for EVI1 overexpressing AMLs. Here, we performed an unbiased chemical drug screening by evaluating the single agent activity of a collection of 2,480 oncology-focused, approved and investigational drugs (NCATS Mechanism Interrogation Plates, MIPE v5.0) against a panel of seven AML cell lines. These included four MECOM-r cell-lines (AML-191, AML-194, UCSD-AML1 and HNT-34) and three non-MECOM-r AMLs (MV4-11, OCI-AML3 and SET-2). Exploiting the mechanistic redundancy built in the library, we identified target-level sensitivities in MECOM-r AML cells and relative activity as compared to other AML subtypes.
A collection of 2480 mechanistically annotated dugs (MIPE v5.0) was used to screen four 3q26.2 rearranged AML cell lines and three non-3q26.2 rearranged AML cell lines. This library purposely exploits redundancy by including multiple inhibitors of key onco-targets, while simultaneously encompassing mechanistic diversity, targeting more than 800 distinct mechanisms of action. Briefly, cells were seeded in 5 uL of growth media using a Multidrop Combi dispenser into 1536 well white polystyrene tissue culture treated plates (Corning) at a density of 500cells/well. For each cell-line, for each of the 2480 drugs in MIPE v5.0 library, an 11-point dose curve was generated via a 1536 pin-tool. Plates were incubated for 48 hr at standard incubator conditions, covered by a stainless steel gasketed lid to prevent evaporation. Cell viability was determined by luminescence based, Cell Titer Glo assay (Promega). In detail, 3 uL of Cell Titer Glo were added to each well and plates were incubated at room temperature for 15 min with a stainless-steel lid in place. Luminescence readings were taken using a Viewlux (PerkinElmer) with a 2 s exposure time per plate. Compound dose-response curves were normalized to DMSO and empty well controls on each plate. Quantitative drug activity data from dose-response curves was determined utilizing area Under the Curve (AUC) and Z-transformed AUC (Z-AUC, a mean-centering transformation applied to each individual cell-line screened).
Potency is read from the fitted curve at half-maximal effect; tags tell the direction and shape of the fitted curve.

Compound	Potency
CC(C)Nc1cc(C(F)(F)F)cc2nc(NC(=O)c3cccnc3)nn12	inconclusive: 26.3 µM [inhibitor, partial curve, poor fit]
Fc1ccc(-c2csc3ncnc(NCc4ccc5c(c4)OCO5)c23)cc1	inconclusive: 18.6 µM [inhibitor, partial curve]
C[C@H](CCC(=O)O)[C@H]1CC[C@H]2[C@@H]3[C@@H](O)C[C@@H]4C[C@H](O)CC[C@]4(C)[C@H]3CC[C@]12C	inactive
C[C@@H](Nc1cc(F)cc(F)c1)c1cc(C(=O)N(C)C)cc2c(=O)cc(N3CCOCC3)oc12	inconclusive: 18.6 µM [inhibitor, partial curve, poor fit]
CCCCCCNC(=O)n1cc(F)c(=O)[nH]c1=O	inconclusive: 14.8 µM [inhibitor, partial curve]
C[C@H](CCC(=O)O)[C@H]1CC[C@H]2[C@@H]3[C@H](O)C[C@@H]4C[C@H](O)CC[C@]4(C)[C@H]3CC[C@]12C	inactive
C#C[C@]1(O)CC[C@H]2[C@@H]3CCc4cc(O)ccc4[C@H]3CC[C@@]21C	inconclusive: 26.3 µM [inhibitor, single point]
Cc1ccc(NS(=O)(=O)c2ccc3c(c2)C2C=CCC2C(c2ccc(C(=O)O)cc2)N3)cc1C (stereo not given)	inactive
FC(F)(F)c1ccc(Nc2nc(-c3c(C(F)(F)F)nc4ccccn34)cs2)cc1	active: 0.332 µM
C[C@]12CCC3c4ccc(O)cc4CCC3C1CCC2=O (stereo not given in full)	inconclusive: 3.72 µM [inhibitor, full curve, poor fit]
Cc1cc2cc(Oc3ccnc(Nc4cccc(CS(=O)(=O)NCCN(C)C)c4)n3)ccc2[nH]1	active: 13.2 µM
Cc1nn(C)c2c1C(c1ccc(C(F)(F)F)cc1)C(C#N)=C(N)O2 (stereo not given)	inconclusive: 20.9 µM [inhibitor, partial curve]
C[N+](C)(C)CC(=O)O	inactive
COC(=O)/C=C/C(=O)N(O)CCCCNCc1ccc(COC(=O)Nc2cccc3ccccc23)cc1	active: 5.9 µM
Cc1ccccc1C(C(=O)NC1CCCCC1)N(C(=O)Cn1ccnc1C)c1cccc(F)c1 (stereo not given)	inconclusive: 20.9 µM [inhibitor, partial curve, poor fit]
C1CCC(C(CC2CCCCN2)C2CCCCC2)CC1 (stereo not given)	active: 7.42 µM
O=P(O)(O)C(O)(Cc1cccnc1)P(=O)(O)O	inactive
CCn1c(-c2nonc2N)nc2cncc(CNC3CCNCC3)c21	inconclusive: 5.25 µM [inhibitor, full curve]
CC(C)c1cnn2c(NCc3ccccc3)cc(N[C@@H](CO)[C@H](O)CO)nc12	active: 0.296 µM
O=c1cc(N2CCOCC2)oc2c(-c3cccc4c3sc3ccccc34)cccc12	inconclusive: 5.25 µM [inhibitor, full curve]

Compound	Potency
CC(C)n1cnc2c(NCCCCCCNC(=O)OC(C)(C)C)nc(NCCO)nc21	inconclusive: 23.5 µM [inhibitor, partial curve]
COC(=O)[C@H](Cc1ccccc1)NC(=O)[C@@H](N)CC(=O)O (H-Asp-Phe-OMe)	inactive
CC1(N)CCN(c2cnc(-c3cccc(Cl)c3Cl)c(N)n2)CC1	inactive
C[C@H](CN(C)C)Oc1nc(Nc2cc3cccc(Cl)c3cn2)cnc1C#N	inconclusive: 2.35 µM [inhibitor, full curve]
CNCc1ccc(-c2cc(-c3nc(-c4ccc(S(=O)(=O)C(C)C)cc4)cnc3N)on2)cc1	inconclusive: 16.6 µM [inhibitor, partial curve]
c1ccc([C@H]2CN3CCSC3=N2)cc1	inactive
CN1CCN(CCCNc2ncc(Cl)c(-c3cc4c(C(=O)NC5CC5)cccc4s3)n2)CC1	inconclusive: 23.5 µM [inhibitor, single point]
C1Cc2[nH]nc(-c3nn[nH]n3)c2C1	inactive
CS(=O)(=O)c1ccc(-c2nnc(/C=C/c3nnc(-c4ccc(C#N)cc4)o3)n2-c2ccccc2Cl)nc1	inactive
Cc1ccc(NC(=O)NCc2ccc3c(c2)CN(C2CCC(=O)NC2=O)C3=O)cc1Cl (stereo not given)	inconclusive: 0.0019 µM [inhibitor, full curve, poor fit]
CC(C)c1cc(-c2n[nH]c(=O)n2-c2ccc3c(ccn3C)c2)c(O)cc1O	inconclusive: 0.0417 µM [inhibitor, full curve]
NC(=O)c1ncn([C@@H]2O[C@H](CO)[C@@H](O)[C@H]2O)c1O	inactive
O=c1cc(-c2ccc(O)cc2)oc2cc(O)cc(O)c12	inconclusive: 20.9 µM [inhibitor, partial curve]
COc1cc(-c2cc(-c3ccc(N4CCNCC4)cc3)cnc2C)cc(OC)c1OC	inconclusive: 7.42 µM [inhibitor, full curve]
OCCn1cc(-c2ccc3c(c2)CC/C3=N\O)c(-c2ccncc2)n1	inconclusive: 13.2 µM [inhibitor, partial curve]
Clc1ccc(C(c2ccc(Cl)cc2)n2cc[n+](CC(OCc3ccc(Cl)cc3Cl)c3ccc(Cl)cc3Cl)c2)cc1 (stereo not given)	active: 9.34 µM
CC(C)Cn1cnc2c(N)nc3ccccc3c21	inactive
CCOC(=O)C1=C(C)NC(=S)NC1c1cccc(O)c1 (stereo not given)	active: 18.6 µM
O=c1[nH]c(=O)n([C@H]2C[C@H](O)[C@@H](CO)O2)cc1I	inconclusive: 14.8 µM [inhibitor, partial curve]
CN(Cc1ccccc1)C(=O)c1ccc(S(=O)(=O)Nc2ccccc2)cc1	inconclusive: 23.5 µM [inhibitor, partial curve, poor fit]
